Data taken from the RNAGym collection of RNA variant scans (doi:10.7554/elife.90254).
Read counts are not given, so values of variants with three or more changes are uncertain.

B1: LINE1-mini (parent)
chain: GGCAGAGCUCAACACAGCGUGGCAAAGUGGCUGUGGCUAGACUGCC

Variants of: B1
Assay: self-cleavage, relative activity (ratio to wild type); higher = more cleavage; in vitro, sequencing; the parent is a self-cleaving ribozyme

Variant	self-cleavage
A12G C23U G27U	0.01
A12G A25G A39G	0.01
A12C G40U C42U	0.02
A12C G29U G33A U34C	0.03
A12C G29U U34A G35U	0.03
A12G U20C G44A	0.01
A12G U28G G44A	0.06
A12U C23G U28G G30U U38C C42A	0.02
A12G G19U A26U G33A	0.1
A12G C13A G19A	0.07
A12U G19C G27C A41U	0.02
A12G G30U G33C U34G	0.02
A12G C15U G17C C31A	0.09
A12C U32A G35U	0.02
A12G C13A U20A	0.01
A12G G29A C42A G44U C45G	0.09
A12G G17C C23A C37A C45A	0.02
A12C U28G G36C	0.01
A12G G21A G30C	0.03
A12G G22A G30U G40C	0
A12U A16C G21C U28A G30C G35A	0.02

Variant	self-cleavage
A12G A16U U20C G21A G44C	0.02
A12U C13G G22A G27A A41U C46G	0.28
A12G G21C G22C	0.01
A12G A25U G35C G36U C42A	0.03
A12G A14C G19C G22U G30C U34G	0
A12G C23U G40U	0.05
A12C G35U C45A	0.04
A12U C18G G22C G44A	0.06
A12G G22A U28C G35A	0.02
A12U A14G G27U G36A U43A C46U	0.01
A12G G21U A41G	0
A12U C15G C18A A41C	0.03
A12G U20G G27C U28A	0.01
A12U A16C G19C G33C A39U A41G	0
A12U C23U U38G	0
A12U C18G G21C A26U G33U	0.03
A12G A24C C31U G33C G35C G44A	0.37
A12G A16G C45U	0.01
A12G C23U U28G U34C	0
A12G A16C C42G	0.28
A12U C23A G30A	0.32

Variant	self-cleavage
A12G A25G A41C	0.02
A12U C13A G19U C31A C42A	0.08
A12G G17U A26C C37U	0.02
A12C U28C G35C	0.01
A12U A14G A25G C37U	0
A12G A14C C18A	0.05
A12G C15A U32C	0.03
A12G C18U A24G	0.03
A12G C15A G30U G35U	0.03
A12G A16U G33U C45A	0.02
A12G U28C G30U U34C	0.02
A12G C15U C18A A24G	0.01
A12G A26C U34C	0.02
A12G G27A C45U	0.07
A12G C18U G21A	0.01
A12U G19A U34A G36A C37A	0.56
A12U C15A A41C	0.02
A12C G29U A41G	0.02
A12G G22A G27C U28C A39G C45A C46G	0
A12G A14C U20A	0.03
A12G C18G G33U	0

Variant	self-cleavage
A12U A14C G21C	0.05
A12U A14C A24U C37A U43C	0.01
A12U A14G A26U U32G C45U	0.02
A12U G21A G40U	0.55
A12G A39C C46G	0.02
A12U C13G G21U A25U C37G U43A	0.02
A12G G22A C23U U34A C42A U43G C46A	0
A12U C18G G29U	0.41
A12U A24G C46A	0.1
A12G A16G C18U	0.01
A12G C13U G27A C37A U43C	0.08
A12U C18G C31U C37U	0.04
A12U G17A G22A G40A G44C C46U	0.01
A12G G21C A25G	0.01
A12G C15U A26U G36A	0.06
A12U A26U G36U	0.05
A12G C42U C46A	0.04
A12G G19A G44U	0.04
A12U G19U C23A A41U	0.08
A12U A16U G27C	0
A12G C13U C15A G19U U20A U28A U43A G44C C45U	0.01
